± gives the uncertainty stated by the source. Over roughly 9,900 compounds, “viability index relative to DMSO control” has its median near 1; the lowest 2% begin near 0.85. Some of the results follow.
Tested on: Plasmodium falciparum NF54 stage V gametocytes
Test: viability index relative to DMSO control (fraction); higher = less gametocyte killing
Details: 2.5 µM, library set: Broad Institute DOS, incubation time: 72 h
Summary of the method: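 Gametocytes (P. falciparum NF54, stage V) were treated with compound at 2.5 µM for 72 hr at 37°C in low oxygen, in serum-free medium at 0.75% gametocytemia and 1.25% hematocrit. Counts of 20–70 µm2 red particles, taken from one field per well after MitoTracker Red CMXRos with saponin, were divided by the plate mean of solvent-only wells. This ratio is the viability index.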

SMILES | viability index
COc1ccc2c3c([nH]c2c1)[C@@H](CO)N(C[C@]31CN(C1)C(=O)CC1CC1)C(=O)c1cccc(F)c1 | 1.05 ± 0.03
O=C(C[C@H]1CC[C@@H]2NC[C@@H](O)COC[C@H]2O1)NCc1ccc2c(c1)OCO2 | 1.09 ± 0.031
COc1ccccc1CNC(=O)C[C@H]1CC[C@@H]2[C@H](COC[C@H](O)CN2Cc2ccc3c(c2)OCO3)O1 | 1.14 ± 0.06
CN(C)C(=O)c1ccc(-c2ccccc2[C@H]2[C@H](C#N)N(C(=O)C3CC3)[C@H]2CO)cc1 | 1.17 ± 0.11
CNC[C@H]1OCCCC[C@@H](C)Oc2ccc(NS(=O)(=O)c3ccc(F)cc3)cc2C(=O)N([C@@H](C)CO)C[C@H]1C | 1.09 ± 0.025
N#Cc1cccc(-c2ccc([C@H]3[C@H]4CNC[C@@H]3N4C(=O)Nc3cccc(F)c3)cc2)c1 | 1.02 ± 0.066
C[C@H](NC(=O)C[C@H]1C[C@H]2c3cc(NS(=O)(=O)c4ccc(F)cc4)ccc3O[C@H]2[C@H](CO)O1)c1ccccc1 | 1.09 ± 0.033
CO[C@H](CN(C)S(=O)(=O)c1ccc(C)cc1)[C@@H](C)CN([C@H](C)CO)S(=O)(=O)c1cccc(Cl)c1 | 1.019 ± 0.004
O=C(Nc1cccc(F)c1)N1CCCCN2[C@H](CO)[C@H](c3ccc(C#Cc4cccnc4)cc3)[C@H]2C1 | 0.848 ± 0.034
Cc1noc(C)c1NC(=O)Nc1ccc2c(c1)C(=O)N([C@H](C)CO)C[C@@H](C)[C@@H](CN(C)S(=O)(=O)c1cccs1)OCCCC[C@H](C)O2 | 1.03 ± 0.16
CO[C@@H]1CN(C)C(=O)c2ccc(NC(=O)Nc3ccccc3Cl)cc2OC[C@H](C)NC[C@H]1C | 1.06 ± 0.018
COc1ccccc1-c1ccc([C@H]2[C@@H](CO)N3CCCCN(C(=O)c4cccnc4)C[C@@H]23)cc1 | 1.05 ± 0.039
C/C=C/c1ccc([C@@H]2[C@@H](CO)N(c3nc(CC)cs3)[C@H]2C#N)cc1 | 1.043 ± 0.0025
O=C(C1CCCC1)N1CC2(C1)[C@@H](c1ccccc1)[C@H](CO)N2Cc1ccc(Cl)cc1 | 1.113 ± 0.0016
COc1cccc(C(=O)Nc2ccc3c(c2)C(=O)N(C)[C@@H]2CC[C@H](CC(=O)N[C@H](C)c4ccccc4)O[C@H]2CO3)c1 | 1.07 ± 0.1
CN1CCN(C(=O)C[C@@H]2CC[C@@H]3[C@@H](COc4ccc(NC(=O)c5cccs5)cc4C(=O)N3C)O2)CC1 | 1.03 ± 0.073
COc1ccc(CNC(=O)C[C@H]2C=C[C@@H](NC(=O)c3cccc(F)c3)[C@@H](CO)O2)cc1 | 0.923 ± 0.14
CC(C)C#Cc1ccc([C@H]2[C@@H](CO)N3C(=O)CN(C(=O)NC4CCCC4)C[C@@H]23)cc1 | 1.06 ± 0.029
COCC(=O)N1CC(=O)N2[C@H](CO)[C@H](c3ccc(C#CC4CC4)cc3)[C@H]2C1 | 1.11 ± 0.027
C[C@H]1CN([C@@H](C)CO)C(=O)c2ccccc2-c2ccccc2CO[C@@H]1CN(C)C(=O)Nc1cccc(Cl)c1Cl | 0.947 ± 0.091
CC(C)NC(=O)Nc1ccc2c(c1)C(=O)N([C@@H](C)CO)C[C@H](C)[C@H](CN(C)C(=O)C1CCCCC1)OCCCC[C@H](C)O2 | 1.04 ± 0.021
COc1ccccc1CN1C[C@@H]2N[C@H](C1)[C@@H]2c1ccc(-c2ccncc2)cc1 | 1.05 ± 0.11
C/C=C/c1ccc([C@@H]2[C@H](CO)N(C(=O)c3cnccn3)C23CN(C(=O)C2CCC2)C3)cc1 | 1.12 ± 0.095

SMILES | viability index
O=C1CNC[C@H]2[C@H](c3ccc(C#CC4CCCCC4)cc3)[C@@H](CO)N12 | 1.03 ± 0.076
CCC(=O)N1[C@H](C(=O)NCc2ccc(F)cc2)[C@@H](CO)[C@@H]2Cn3c(ccc(C4=CCCCC4)c3=O)[C@@H]21 | 1.08 ± 0.047
O=C(N[C@H]1CC[C@H](CCn2cc(-c3ccccc3F)nn2)O[C@H]1CO)c1ccc2c(c1)OCO2 | 1.1 ± 0.15
CNC[C@@H]1OCc2cn(nn2)CCCC(=O)N([C@H](C)CO)C[C@@H]1C | 1.06 ± 0.02
C[C@@H]1CN([C@H](C)CO)S(=O)(=O)c2ccc(-c3cccc(C#N)c3)cc2O[C@@H]1CN(C)C(=O)c1ccccc1 | 0.996 ± 0.05
CO[C@@H]1CN(C)C(=O)c2cc(NC(=O)C3CC3)ccc2OC[C@H](C)N(Cc2cc(F)ccc2F)C[C@H]1C | 1.04 ± 0.039
CCNC(=O)c1cc2c(c(-c3cccc(-c4cncnc4)c3)n1)[C@H](CCO)N(C(C)=O)C2 | 0.926 ± 0.03
CN1C(=O)c2cc(NC(=O)Nc3ccc(Cl)cc3)ccc2OC[C@H]2O[C@H](CC(=O)NCCN3CCCCC3)CC[C@H]21 | 1.05 ± 0.041
O=C(Nc1ccccc1Cl)N1C[C@@H]2[C@H](c3ccccc31)[C@@H](CO)N2C(=O)c1cccnc1 | 1.02 ± 0.013
COc1ccc(NC(=O)Nc2ccc3c(c2)[C@H]2C[C@H](CC(=O)NCC(F)(F)F)O[C@H](CO)[C@H]2O3)cc1 | 1.05 ± 0.036
Cc1noc(C)c1S(=O)(=O)N(C)C[C@H]1OCCCC[C@H](C)Oc2ccc(NS(=O)(=O)c3cn(C)cn3)cc2C(=O)N([C@H](C)CO)C[C@@H]1C | 1.08 ± 0.019
O=C(CC(F)(F)F)N1C[C@@H]2[C@H](c3ccccc31)[C@@H](CO)N2C(=O)c1ccncc1 | 1.08 ± 0.011
O=C(Nc1ccc2c(c1)[C@@H]1C[C@@H](CC(=O)N3CCc4ccccc4C3)O[C@H](CO)[C@@H]1O2)c1ccc2c(c1)OCO2 | 1.04 ± 0.054
COCC(=O)N1[C@H](C(=O)NCc2ccccc2)[C@@H](CO)[C@@H]2Cn3c(cccc3=O)[C@@H]21 | 1.02 ± 0.029
O=C(C[C@H]1CC[C@@H]2[C@H](COC[C@H](O)CN2S(=O)(=O)c2cccc(Cl)c2)O1)N1CCOCC1 | 1.06 ± 0.036
COc1ccc(S(=O)(=O)Nc2cccc3c2O[C@@H](CN(C)CC2CCCCC2)[C@@H](C)CN([C@H](C)CO)C3=O)cc1 | 0.955 ± 0.087
O=C(NC1CCCCC1)N1CC2(C1)[C@H](c1ccccc1)[C@H](CO)N2S(=O)(=O)Cc1ccccc1 | 1.03 ± 0.013
COc1ccc2c3c([nH]c2c1)[C@H](CO)N(CC1CC1)C[C@]31CN(C1)C(=O)NC1CCCC1 | 0.964 ± 0.041
C[C@@H]1CN([C@H](C)CO)C(=O)CCCn2nncc2CO[C@H]1CN(C)Cc1cccc2c1OCCCO2 | 1.07 ± 0.038
COc1ccc2c3c([nH]c2c1)[C@H](CO)N(C)C[C@]31CCN(CC1)C(=O)c1ccccn1 | 0.898 ± 0.089
CN(C[C@H]1[C@@H](c2ccccc2)[C@@H](CO)N1C(=O)C1CCC1)C(=O)c1ccncc1 | 1.07 ± 0.026
COc1ccc(-c2ccccc2[C@@H]2[C@H](C#N)N(C(=O)C3CCC3)[C@H]2CO)cc1 | 1.16 ± 0.12
N#C[C@H]1[C@H](c2ccccc2-c2ccccc2F)[C@H](CO)N1C(=O)c1ccccn1 | 1.1 ± 0.063

SMILES | viability index
C[C@@H]1CN([C@@H](C)CO)C(=O)c2cc(NC(=O)Nc3ccc4c(c3)OCO4)ccc2O[C@@H](C)CCCCO[C@H]1CN(C)C(=O)CCCN(C)C | 1.04 ± 0.0094
C[C@H]1CN([C@@H](C)CO)C(=O)CCCn2cc(nn2)CO[C@H]1CN(C)C(=O)NC1CCCCC1 | 1.06 ± 0.015
C[C@H](CO)N1C[C@H](C)[C@H](CN(C)C(=O)Nc2ccc3c(c2)OCO3)Oc2ccc(NC(=O)Cn3cnnn3)cc2C1=O | 0.979 ± 0.019
O=C(Nc1ccc(C(F)(F)F)cc1)Nc1ccc2c(c1)[C@H]1C[C@H](CC(=O)N3CCc4ccccc4C3)O[C@H](CO)[C@H]1O2 | 1.03 ± 0.018
O=C(C[C@H]1CC[C@H]2[C@@H](COC[C@@H](O)CN2S(=O)(=O)c2cccc(Cl)c2)O1)NC1Cc2ccccc2C1 | 1 ± 0.054
N#C[C@@H]1[C@H](c2ccccc2-c2cccc(F)c2)[C@H](CO)N1C(=O)Nc1cc(F)ccc1F | 1.06 ± 0.082
C[C@H]1CN([C@@H](C)CO)C(=O)c2c(c3ccccc3n2C)-c2ccccc2CO[C@H]1CN(C)C | 1.04 ± 0.052
COc1ccc2c3c([C@@H](CO)N(C[C@]33CN(C3)C(=O)c3cccnc3)C(=O)Nc3ccc(F)cc3)n(C)c2c1 | 0.969 ± 0.06
COc1ccc([C@H]2C/C=C\C[C@H](c3cccc(Cl)c3)NC(=O)[C@@H](c3ccccc3)CC(=O)N2)c(OC)c1 | 0.978 ± 0.039
C[C@@H]1CN([C@H](C)CO)C(=O)CCCn2nncc2CO[C@H]1CN(C)S(=O)(=O)c1ccccc1C#N | 1.02 ± 0.032
C/C=C/c1cnc2c(c1)C(=O)N([C@@H](C)CO)C[C@H](C)[C@H](CN(C)CC1CCOCC1)O2 | 1.04 ± 0.048
COc1ccc(S(=O)(=O)Nc2ccc3c(c2)C(=O)N([C@H](C)CO)C[C@H](C)[C@@H](CN(C)C(=O)Nc2c(C)noc2C)OCCCC[C@H](C)O3)cc1 | 1.06 ± 0.14
Cc1noc(C)c1S(=O)(=O)Nc1ccc2c(c1)C(=O)N([C@@H](C)CO)C[C@@H](C)[C@@H](CN(C)C(=O)Nc1cccc3ccccc13)OCCCC[C@@H](C)O2 | 0.893 ± 0.066
CN(C)C(=O)C[C@H]1C=C[C@H](NC(=O)c2ccc(F)cc2)[C@H](CO)O1 | 1.12 ± 0.071
C[C@H]1CN([C@@H](C)CO)C(=O)c2cc(C3=CCCCC3)cnc2O[C@H]1CN(C)S(=O)(=O)c1cn(C)cn1 | 0.995 ± 0.016
O=S(=O)(c1ccc(F)cc1)N1C[C@H]2[C@@H](c3ccccc31)[C@H](CO)N2Cc1ccccc1Cl | 1.02 ± 0.042
CN(C)CC(=O)N1[C@@H](C#N)[C@H](c2ccccc2-c2ccccc2F)[C@@H]1CO | 1.06 ± 0.082
C[C@@H]1CN([C@H](C)CO)C(=O)CCCn2nncc2CO[C@@H]1CN(C)Cc1ccc(C(=O)Nc2ccccc2N)cc1 | 1.049 ± 0.0049
C/C=C/c1ccc([C@H]2[C@@H](CO)N(CCC)[C@H]2CNC(=O)CN2CCOCC2)cc1 | 1.02 ± 0.047
C[C@@H]1CN([C@H](C)CO)C(=O)CCCn2nncc2CO[C@H]1CN(C)Cc1ccccc1C(=O)O | 1.03 ± 0.016
C[C@H](CO)N1C[C@H](C)[C@@H](CN(C)C(=O)c2ccc(N3CCN(C)CC3)cc2)OCc2cn(nn2)CCCC1=O | 0.954 ± 0.032
C[C@H](CO)N1C[C@H](C)[C@@H](CN(C)C(=O)c2cnccn2)Oc2cc(C#CCC3CCCC3)ccc2S1(=O)=O | 1.05 ± 0.018
COc1ccc(C#Cc2ccc3c(c2)[C@H]2[C@H](CCN2Cc2nccs2)[C@H](CO)N3)cc1 | 1.05 ± 0.021
